# Experimental data from the supplement of paper PMC8728848.
# Some of the results follow.
# How the values were obtained:
# Test in all cases: glycan array binding signal (z-score within array); higher = stronger binding
# Settings in all cases: glycan notation: IUPAC condensed, linker removed
# [1] = target: Neu5Ac(a2-6)Gal(b1-4)GlcNAc(b1-2)Man(a1-3)[GlcNAc(b1-4)][Neu5Ac(a2-6)Gal(b1-4)GlcNAc(b1-2)Man(a1-6)]Man(b1-4)GlcNAc(b1-4)GlcNAc
# In short: (§1)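 The binding signal is a Z-score computed within each array. Data were drawn from 3228 arrays in the Consortium for Functional Glycomics database, restricted to those with a known protein sequence. Scores were averaged over arrays of the same protein sequence at different concentrations or buffers, and over linkers, and negative values can be taken as non-binding.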
# [2] = target: Neu5Ac(a2-6)Gal(b1-4)GlcNAc(b1-2)Man(a1-3)[Man(a1-6)]Man(b1-4)GlcNAc(b1-4)GlcNAc
# In short: as §1
# [3] = target: Neu5Ac(a2-6)Gal(b1-4)GlcNAc(b1-2)Man(a1-3)[Neu5Ac(a2-3)Gal(b1-4)GlcNAc(b1-2)Man(a1-6)]Man(b1-4)GlcNAc(b1-4)GlcNAc
# In short: as §1
# [4] = target: Neu5Ac(a2-6)Gal(b1-4)GlcNAc(b1-2)Man(a1-3)[Neu5Ac(a2-6)Gal(b1-4)GlcNAc(b1-2)Man(a1-6)]Man(b1-4)GlcNAc(b1-4)GlcNAc
# In short: as §1
# [5] = target: Neu5Ac(a2-6)Gal(b1-4)GlcNAc(b1-2)Man(a1-3)[Neu5Ac(a2-6)Gal(b1-4)GlcNAc(b1-2)Man(a1-6)]Man(b1-4)GlcNAc(b1-4)[Fuc(a1-6)]GlcNAc
# In short: as §1
# [6] = target: Neu5Ac(a2-6)Gal(b1-4)GlcNAc(b1-2)Man(a1-6)Man(b1-4)GlcNAc(b1-4)GlcNAc
# In short: as §1
# [7] = target: Neu5Ac(a2-6)Gal(b1-4)GlcNAc(b1-2)Man(a1-6)[Gal(b1-4)GlcNAc(b1-2)Man(a1-3)]Man(b1-4)GlcNAc(b1-4)GlcNAc
# In short: as §1
# [8] = target: Neu5Ac(a2-6)Gal(b1-4)GlcNAc(b1-2)Man(a1-6)[GlcNAc(b1-2)Man(a1-3)]Man(b1-4)GlcNAc(b1-4)GlcNAc
# In short: as §1
# [9] = target: Neu5Ac(a2-6)Gal(b1-4)GlcNAc(b1-2)Man(a1-6)[Man(a1-3)]Man(b1-4)GlcNAc(b1-4)GlcNAc
# In short: as §1
# [10] = target: Neu5Ac(a2-6)Gal(b1-4)GlcNAc(b1-2)[Neu5Ac(a2-6)Gal(b1-4)GlcNAc(b1-4)]Man(a1-3)[GlcNAc(b1-4)][Neu5Ac(a2-6)Gal(b1-4)GlcNAc(b1-2)[Neu5Ac(a2-6)Gal(b1-4)GlcNAc(b1-6)]Man(a1-6)]Man(b1-4)GlcNAc(b1-4)GlcNAc
# In short: as §1
# [11] = target: Neu5Ac(a2-6)Gal(b1-4)GlcNAc(b1-2)[Neu5Ac(a2-6)Gal(b1-4)GlcNAc(b1-4)]Man(a1-3)[GlcNAc(b1-4)][Neu5Ac(a2-6)Gal(b1-4)GlcNAc(b1-4)Man(a1-6)]Man(b1-4)GlcNAc(b1-4)GlcNAc
# In short: as §1
# [12] = target: Neu5Ac(a2-6)Gal(b1-4)GlcNAc(b1-2)[Neu5Ac(a2-6)Gal(b1-4)GlcNAc(b1-6)]Man(a1-6)[Neu5Ac(a2-6)Gal(b1-4)GlcNAc(b1-2)Man(a1-3)][GlcNAc(b1-4)]Man(b1-4)GlcNAc(b1-4)GlcNAc
# In short: as §1
# [13] = target: Neu5Ac(a2-6)Gal(b1-4)GlcNAc(b1-3)Gal(b1-3)GlcNAc
# In short: as §1
# [14] = target: Neu5Ac(a2-6)Gal(b1-4)GlcNAc(b1-3)Gal(b1-4)GlcNAc
# In short: as §1
# [15] = target: Neu5Ac(a2-6)Gal(b1-4)GlcNAc(b1-3)Gal(b1-4)GlcNAc(b1-2)Man(a1-3)[Neu5Ac(a2-6)Gal(b1-4)GlcNAc(b1-3)Gal(b1-4)GlcNAc(b1-2)Man(a1-6)]GalNAc
# In short: as §1
# [16] = target: Neu5Ac(a2-6)Gal(b1-4)GlcNAc(b1-3)Gal(b1-4)GlcNAc(b1-3)Gal(b1-4)GlcNAc
# In short: as §1
# [17] = target: Neu5Ac(a2-6)Gal(b1-4)GlcNAc(b1-3)Gal(b1-4)GlcNAc(b1-3)Gal(b1-4)GlcNAc(b1-2)Man(a1-3)[Neu5Ac(a2-6)Gal(b1-4)GlcNAc(b1-3)Gal(b1-4)GlcNAc(b1-3)Gal(b1-4)GlcNAc(b1-2)Man(a1-6)]GalNAc
# In short: as §1
# [18] = target: Neu5Ac(a2-6)Gal(b1-4)GlcNAc(b1-3)Gal(b1-4)GlcNAc(b1-3)GalNAc
# In short: as §1
# [19] = target: Neu5Ac(a2-6)Gal(b1-4)GlcNAc(b1-3)Gal(b1-4)GlcNAc(b1-3)[Neu5Ac(a2-6)Gal(b1-4)GlcNAc(b1-3)Gal(b1-4)GlcNAc(b1-6)]GalNAc
# In short: as §1
# [20] = target: Neu5Ac(a2-6)Gal(b1-4)GlcNAc(b1-3)Gal(b1-4)GlcNAc(b1-6)[Gal(b1-3)]GalNAc
# In short: as §1
# [21] = target: Neu5Ac(a2-6)Gal(b1-4)GlcNAc(b1-3)Gal(b1-4)[Fuc(a1-3)]GlcNAc(b1-3)Gal(b1-4)[Fuc(a1-3)]GlcNAc
# In short: as §1
# [22] = target: Neu5Ac(a2-6)Gal(b1-4)GlcNAc(b1-3)GalNAc
# In short: as §1
# [23] = target: Neu5Ac(a2-6)Gal(b1-4)GlcNAc(b1-3)[Neu5Ac(a2-6)Gal(b1-4)GlcNAc(b1-6)]GalNAc
# In short: as §1
# [24] = target: Neu5Ac(a2-6)Gal(b1-4)GlcNAc(b1-6)GalNAc
# In short: as §1
# [25] = target: Neu5Ac(a2-6)Gal(b1-4)GlcNAc(b1-6)[Gal(b1-3)GlcNAc(b1-3)]Gal(b1-4)Glc
# In short: as §1
# [26] = target: Neu5Ac(a2-6)Gal(b1-4)GlcNAc(b1-6)[Gal(b1-3)]GalNAc
# In short: as §1
# [27] = target: Neu5Ac(a2-6)Gal(b1-4)GlcNAc6S
# In short: as §1
# Neu5Ac(a2-6)GalNAc = target: Neu5Ac(a2-6)GalNAc
# In short: as §1
# [28] = target: Neu5Ac(a2-6)GalNAc(b1-4)GlcNAc
# In short: as §1
# [29] = target: Neu5Ac(a2-6)GalNAc(b1-4)GlcNAc6S
# In short: as §1
# [30] = target: Neu5Ac(a2-6)GlcNAc(b1-4)GlcNAc
# In short: as §1
binder,measurement,setting,value
DC-ASGPR Long (Homo sapiens) (protein) MTRTYENFQYLENKVKVQGFKNGPLPLQSLLQRLRSGPCHLLLSLGLGLLLLVIICVVGFQNSKFQRDLVTLRTDFSNFTSNTVAEIQALTSQGSSLEETIASLKAEVEGFKQERQAGVSELQEHTTQKAHLGHCPHCPSVCVPVHSEMLLRVQQLVQDLKKLTCQVATLNNNASTEGTCCPVNWVEHQDSCYWFSHSGMSWAEAEKYCQLKNAHLVVINSREEQNFVQKYLGSAYTWMGLSDPEGAWKWVDGTDYATGFQNWKPGQPDDWQGHGLGGGEDCAHFHPDGGWNDDVCQRPYHWVCEAGLGQTSQESH,glycan array binding signal (z-score),[1],-0.495
same,glycan array binding signal (z-score),[2],-0.249
same,glycan array binding signal (z-score),[3],-0.016
same,glycan array binding signal (z-score),[4],-0.115
same,glycan array binding signal (z-score),[5],-0.343
same,glycan array binding signal (z-score),[6],-0.263
same,glycan array binding signal (z-score),[7],-0.434
same,glycan array binding signal (z-score),[8],-0.219
same,glycan array binding signal (z-score),[9],-0.516
same,glycan array binding signal (z-score),[10],-0.513
same,glycan array binding signal (z-score),[11],-0.285
same,glycan array binding signal (z-score),[12],-0.533
same,glycan array binding signal (z-score),[13],-0.236
same,glycan array binding signal (z-score),[14],-0.735
same,glycan array binding signal (z-score),[15],0.57
same,glycan array binding signal (z-score),[16],-0.28
same,glycan array binding signal (z-score),[17],1.75
same,glycan array binding signal (z-score),[18],-0.693
same,glycan array binding signal (z-score),[19],-0.223
same,glycan array binding signal (z-score),[20],-0.527
same,glycan array binding signal (z-score),[21],-0.245
same,glycan array binding signal (z-score),[22],0.262
same,glycan array binding signal (z-score),[23],-0.38
same,glycan array binding signal (z-score),[24],-0.224
same,glycan array binding signal (z-score),[25],-0.38
same,glycan array binding signal (z-score),[26],-0.733
same,glycan array binding signal (z-score),[27],0.116
same,glycan array binding signal (z-score),Neu5Ac(a2-6)GalNAc,0.918
same,glycan array binding signal (z-score),[28],1.27
same,glycan array binding signal (z-score),[29],-0.098
same,glycan array binding signal (z-score),[30],-0.437
